# Assay results as given in the supplement of paper PMC12462457.
# Structures can show the parent of a compound that is named as a salt. ± gives the standard deviation of the averaged measurements. The list shows a part of the results.
# Tested on: OVCAR8
# Assay: cell count relative to DMSO vehicle (fold change); OVCAR8 is a high-grade serous ovarian cancer line and CX-5461 an RNA polymerase I inhibitor; higher = more surviving senescent cells (less killing)
# Conditions: senescence inducer: CX-5461 3 µM 48 h, then 6 d recovery (CX senescent), exposure time 24 h
SMILES,cell count (compound dose 1 µM),cell count (compound dose 5 µM)
CCCCCCCC/C=C1\C=C(C(F)(F)F)c2cc(O)c(O)cc21,0.606 ± 0.36,0.0595 ± 0.077
O=C(c1cc(-c2cc3c(cc2C(=O)N2Cc4ccccc4C[C@H]2CN2CCOCC2)OCO3)n2c1CCCC2)N(c1ccccc1)c1ccc(O)cc1,1.13 ± 0.035,0.832 ± 0.27
CNC(=O)c1ccccc1Nc1nc(Nc2ccc(N3CCOCC3)cc2OC)ncc1Cl,1.23 ± 0.042,1.1 ± 0.18
CCCn1/c(=N/C(=O)c2cccc(C(N)=O)c2)[nH]c2ccccc21 [Takinib],1.14 ± 0.22,1.16 ± 0.26
CCOC(=O)C1=C(C)NC(C)=C(C(=O)OCC)C1c1ccccc1/C=C/C(=O)OC(C)(C)C [Lacidipine],1.07 ± 0.29,1.12 ± 0.29
O=S(=O)(c1ccccc1)N(CC(F)(F)F)c1ccc(C(O)(C(F)(F)F)C(F)(F)F)cc1,1.05 ± 0.29,1.07 ± 0.4
Cc1nc2cccc(N)c2c(=O)n1C1CCC(=O)NC1=O (stereo unspecified) [Avadomide],1.07 ± 0.13,1.07 ± 0.14
CS(=O)(=O)N1CCN(Cc2cc3nc(-c4cccc5[nH]ncc45)nc(N4CCOCC4)c3s2)CC1 [Pictilisib (GDC-0941)],1.12 ± 0.027,1.04 ± 0.04
Cc1cc(N2CCOCC2)cc2[nH]c(-c3c(NC[C@@H](O)c4cccc(Cl)c4)cc[nH]c3=O)nc12,0.825 ± 0.21,0.942 ± 0.34
Cc1cc(O)c(C(=O)CCC(C)C)c(=O)o1 [Pogostone],1.02 ± 0.24,1.05 ± 0.088
Nc1nc2c(ncn2COCCO)c(=O)[nH]1,1.12 ± 0.11,1.02 ± 0.032
CC1(C)SCCN(S(=O)(=O)c2ccc(OCC#CCO)cc2)[C@H]1C(=O)NO [Apratastat],0.507 ± 0.14,0.436 ± 0.12
CC1(C)C2=CCCC(C)(C)[C@]23CC[C@H]1C3 [Isolongifolene],1.01 ± 0.031,1.07 ± 0.042
COc1ccc(C(=O)CC(=O)c2ccc(C(C)(C)C)cc2)cc1,1.18 ± 0.086,1.08 ± 0.1
CC(C)(C)c1ccc(C(=O)NC(=S)Nc2ccc(N)cc2)cc1 [Tenovin-3],1.01 ± 0.11,0.988 ± 0.12
COc1ccc(C(=O)c2ccccc2)c(O)c1,1.06 ± 0.046,1.11 ± 0.23
O=C1NCCc2[nH]c(-c3ccncc3)cc21,0.749 ± 0.054,0.366 ± 0.049
Cc1ccc(NC(=O)c2cccc(N(C)C)c2)cc1NC(=O)c1ccc(O)cc1,1.16 ± 0.042,1.11 ± 0.14
CCCCOc1ccc(CC/C=C2\SC(=O)N(CCN)C2=O)cc1 [K145 (hydrochloride)],1.13 ± 0.24,1.11 ± 0.028
O=C(CCCCCCC(=O)Nc1ccccc1)NO,1.13 ± 0.12,0.739 ± 0.033
O=C(/C=C/c1ccc(O)c(O)c1)c1ccc(O)cc1O [Butein],1.26 ± 0.057,1.294 ± 0.0092
COc1cc2/c(=N/c3ccc(Br)cc3F)nc[nH]c2cc1OCC1CCN(C)CC1 [Vandetanib],0.995 ± 0.086,0.75 ± 0.019
COc1ccc(CN(C(=O)Cc2cccs2)c2cc(OC)c(OC)c(OC)c2)cc1,1.21 ± 0.034,1 ± 0.17
O=C(CCCCCN1C(=O)c2cccc3cccc(c23)C1=O)NO [Scriptaid],1.2 ± 0.17,0.871 ± 0.17
CCN(CC)C(=S)SSC(=S)N(CC)CC,0.98 ± 0.044,0.676 ± 0.078

SMILES,cell count (compound dose 1 µM),cell count (compound dose 5 µM)
O=C(O)c1cc(=O)cc(C(=O)O)o1 [Chelidonic acid],1.06 ± 0.056,1.1 ± 0.14
"NC(N)=NC(=O)c1nc(Cl)c(N2CCCCCC2)nc1N [5-(N,N-Hexamethylene)-amiloride]",0.707 ± 0.051,0.498 ± 0.054
C[C@H](CCC(=O)NCC(=O)O)[C@H]1CC[C@H]2[C@@H]3[C@H](O)C[C@@H]4C[C@H](O)CC[C@]4(C)[C@H]3CC[C@]12C [Glycochenodeoxycholic acid],1.03 ± 0.13,1.08 ± 0.13
C[C@H](CCC(=O)NCC(=O)O)[C@H]1CC[C@H]2[C@@H]3[C@H](O)C[C@@H]4C[C@H](O)CC[C@]4(C)[C@H]3CC[C@]12C [Glycochenodeoxycholic acid (sodium salt)],1.07 ± 0.11,1.1 ± 0.2
CC(C)(C)C(=O)N1N=CC[C@H]1c1ccccc1,1.02 ± 0.13,0.944 ± 0.089
COc1cc(N2CCC(N)CC2)ccc1Nc1ncc(Cl)c(-c2c[nH]c3ccccc23)n1,0.95 ± 0.058,0.431 ± 0.1
Nc1[nH]nc2nnc(-c3c(-c4ccccc4)nn4ccccc34)cc12,1.05 ± 0.089,1.06 ± 0.091
Cc1cccc(CC(=O)N2CCc3c2ccc(-c2cn(C)c4ncnc(N)c24)c3F)n1,1.04 ± 0.28,0.945 ± 0.23
O=c1c(O[C@@H]2O[C@H](CO)[C@H](O)[C@H](O)[C@H]2O)c(-c2ccc(O)c(O)c2)oc2cc(O)cc(O)c12 [Hyperoside],1.3 ± 0.23,1.07 ± 0.057
CCn1c2ccccc2c2cc(CNCc3ccccc3OC)ccc21,1.16 ± 0.016,1.12 ± 0.033
COCCOc1cc2nccc(Nc3n[nH]c(C)c3C)c2cc1S(=O)(=O)C(C)(C)C [RIP2 kinase inhibitor 2],1.12 ± 0.2,0.941 ± 0.34
CC[C@@H](C)Nc1cc(C(=O)N[C@H]2C[C@H]3CC[C@@H](C2)N3c2ccc(C(=O)C3CC3)cn2)c(C)cc1C(N)=O,1.11 ± 0.25,1.27 ± 0.32
OCCN(CCO)c1nc(N2CCCCC2)c2nc(N(CCO)CCO)nc(N3CCCCC3)c2n1,1.1 ± 0.042,1.08 ± 0.12
Cc1ccc(NC(=O)c2cccc(C(C)(C)C#N)c2)cc1Nc1ccc2ncn(C)c(=O)c2c1,1.32 ± 0.17,1.22 ± 0.18
COc1cccc(Nc2nc(NCC3CCCO3)c3ccccc3n2)c1 (stereo unspecified),1.04 ± 0.23,1.05 ± 0.093
Clc1ccc(C(c2c[nH]c3ccccc23)c2c[nH]c3ccccc23)cc1,1.12 ± 0.21,1.026 ± 0.0064
CC(=O)N(Cc1ccc(F)cc1)C1=C(NCc2ccccc2)C(=O)c2ccccc2C1=O,1.01 ± 0.062,1.16 ± 0.13
Cc1ccc(F)c(NC(=O)Nc2ccc(-c3cccc4[nH]nc(N)c34)cc2)c1 [Linifanib (ABT-869)],1.16 ± 0.13,1.08 ± 0.17
Cn1c(-c2ccccc2C(F)(F)F)nnc1C12CCC(c3noc(C4CC(F)(F)C4)n3)(CC1)CC2,1.22 ± 0.42,1.09 ± 0.16
C=C1C(=O)[C@@]23[C@H](O)C[C@@H]4C(C)(C)C(=O)CC[C@@]4(C)[C@@H]2CC[C@@H]1[C@H]3O [Glaucocalyxin A],0.939 ± 0.13,0.0975 ± 0.056
Cc1cc(CN2CCN(c3c(Br)cnc4nc(-c5ccc(N6CCN(C)CC6)cc5)[nH]c34)CC2)no1,1.09 ± 0.14,0.939 ± 0.014
N#Cc1cc2cc(CN3CCC(Nc4ncnc5sc(CC(F)(F)F)cc45)CC3)ccc2[nH]1,1.09 ± 0.1,1.014 ± 0.0014
Cc1ccc2nc(CN(CCN(Cc3nc4ccc(C)cc4[nH]3)Cc3nc4ccc(C)cc4[nH]3)Cc3nc4ccc(C)cc4[nH]3)[nH]c2c1,1.01 ± 0.17,1.17 ± 0.067
CCc1ccc(-c2nc(CSCC(=O)NCCc3ccccc3)c(C)o2)cc1,1.13 ± 0.19,1.03 ± 0.16
N#CCNC(=O)c1ccc(-c2ccnc(Nc3ccc(N4CCOCC4)cc3)n2)cc1 [Momelotinib],0.488 ± 0.14,0.253 ± 0.087

SMILES,cell count (compound dose 1 µM),cell count (compound dose 5 µM)
CS(=O)(=O)OCCCCOS(C)(=O)=O,1.06 ± 0.035,1.09 ± 0.11
CC1(C)CCC(c2ccc(Cl)cc2)=C(CN2CCN(c3ccc(C(=O)NS(=O)(=O)c4ccc(N[C@H](CCN5CCNCC5)CSc5ccccc5)c(S(=O)(=O)C(F)(F)F)c4)cc3)CC2)C1 [Navitoclax-piperazine],1.11 ± 0.021,0.791 ± 0.099
O=C(/C=C/c1ccc(O)cc1)c1ccc(O)cc1O [Isoliquiritigenin],1.09 ± 0.28,1.14 ± 0.16
Oc1c(C(Nc2ccccn2)c2cccs2)ccc2cccnc12 (stereo unspecified),1.17 ± 0.24,1.19 ± 0.19
Oc1ccc(C(c2c[nH]c3ccccc23)c2c[nH]c3ccccc23)cc1,0.977 ± 0.1,1.17 ± 0.042
CN1CCc2c(c3ccccc3n2Cc2ccc(C(=O)NO)cc2)C1 [Tubastatin A],1.18 ± 0.1,1.11 ± 0.06
CN1CCc2c(c3ccccc3n2Cc2ccc(C(=O)NO)cc2)C1 [Tubastatin A HCl],1.14 ± 0.027,1.22 ± 0.053
Cc1c(CN2CCN(C(=O)[C@H](C)O)CC2)sc2c(N3CCOCC3)nc(-c3cnc(N)nc3)nc12 [Apitolisib],1.13 ± 0.029,1.25 ± 0.15
O=C1/C(=C/C=C/c2ccco2)SC(=S)N1NS(=O)(=O)c1ccccc1,1.01 ± 0.025,1.1 ± 0.034
COc1nc(OCc2cccc(-c3ccccc3)c2C)ccc1CNCCNC(C)=O,1.18 ± 0.3,1.15 ± 0.054
COc1cc(O)c(C(=O)/C=C/c2ccc(O)cc2)c(OC)c1 [Flavokawain C],0.9135 ± 0.005,0.923 ± 0.093
CCn1cc(-c2ccc3c(c2)CCN3C(=O)Cc2cccc(OC(F)(F)F)c2)c2c(N)ncnc21,1.1 ± 0.14,1.07 ± 0.17
CNC(=O)c1ccccc1Nc1cc(Nc2ccc(N3CCOCC3)cc2OC)ncc1C(F)(F)F,1.03 ± 0.059,1.18 ± 0.18
CNC(=O)c1cc(Oc2ccc(NC(=O)Nc3ccc(Cl)c(C(F)(F)F)c3)cc2)ccn1 [Sorafenib],1.19 ± 0.044,1.15 ± 0.12
CNC(=O)c1cc(Oc2ccc(NC(=O)Nc3ccc(Cl)c(C(F)(F)F)c3)cc2)ccn1 [Sorafenib Tosylate],1.18 ± 0.056,1.28 ± 0.15
COc1cccc2c1C(=O)c1c(O)c3c(c(O)c1C2=O)C[C@@](O)(C(C)=O)C[C@@H]3O[C@H]1C[C@H](N)[C@H](O)[C@H](C)O1 [Daunorubicin (hydrochloride)],1.2 ± 0.021,0.812 ± 0.12
N#Cc1cc(N2CCC(C(=O)N3N=CC[C@H]3c3cc(F)cc(F)c3)CC2)ncn1,1.13 ± 0.054,1.25 ± 0.087
COc1ccc(C(CC(=O)N2CCCC2)c2c(OC)cc(OC)c3c(-c4ccccc4)cc(=O)oc23)cc1 (stereo unspecified),1.01 ± 0.19,1.03 ± 0.1
Cc1ccc(S(=O)(=O)Cc2nc(-c3ccc(C(=O)NCc4cccnc4)cc3)oc2C)cc1,1.05 ± 0.049,1.09 ± 0.13
Cc1cn([C@H]2C=C[C@@H](CO)O2)c(=O)[nH]c1=O [Stavudine],1.1 ± 0.23,1.09 ± 0.24
COc1ccc2[nH]c3c(-c4cccc5ccccc45)nccc3c2c1,1.15 ± 0.088,1.13 ± 0.083
O=[N+]([O-])c1ccc(Nc2ccccc2-c2ccccc2)c2nonc12,1.18 ± 0.044,1.12 ± 0.12
O=C(N[C@H]1CCc2cc(F)cc(F)c2NC1=O)c1n[nH]c(Cc2ccccc2)n1,0.993 ± 0.069,0.996 ± 0.03
